Laboratory results published in PubChem BioAssay AID1347073 (National Center for Advancing Translational Sciences (NCATS), 2019).
Among all 45,000 compounds or so, about 200 (0.44%) were called active. About 7% were inconclusive and are not listed. Calls follow the shape of the dose curve; as a rule, active = well fitted activation curve with a large enough effect; inconclusive = small, poorly fitted or top-dose-only effect; inactive = no such curve, though single readings can be large or run the other way. The list shows a part of the results.

test: qHTS of TDP-43 Inhibitors: NCGC Sytravon Library Screen; details: yeast TDP-43 toxicity rescue, BacTiter-Glo growth, 24 h; series mostly up to 46.1 µM; growth rescue (activation): at the top concentration; also: 0% is about no effect; nearly all actives have a fitted effect of over 55% in size
How it was run: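 TDP-43-expressing yeast, pregrown in raffinose, seeded at OD600 0.02 in galactose medium with compound for 24 hr at 30 deg C. Growth read by BacTiter-Glo luminescence, so rescue of toxicity appears as activation.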

| Structure (SMILES) | growth rescue (activation) |
| --- | --- |
| COc1ccc(C2=Nc3ccccc3OC2)cc1 | inactive: 23.2% |
| O=C(COC(=O)C1C2CC3OC(=O)C1C3C2)Nc1ccc(F)cc1 (configuration not stated) | inactive: 16% |
| CC1CCCCC1NC(=O)c1ccc(S(=O)(=O)NNC(=O)c2ccncc2)cc1 (configuration not stated) | inactive: -2.45% |
| Cc1ccc(-c2nn(-c3ccccc3)cc2C(=O)Nc2cccc(S(=O)(=O)N3CCOCC3)c2)cc1 | inactive: 6.37% |
| O=C(CCc1ccccc1)NNC(=O)c1ccc(F)cc1 | inactive: 4.8% |
| CC(C)c1ccc2[nH]c3nc(SCC(=O)N4CCOCC4)nnc3c2c1 | inactive: 16.9% |
| COc1ccc(Cl)cc1NC(=O)NC(C)C(C)(C)C (configuration not stated) | inactive: 16.2% |
| Cc1c(C(C)C)c(=O)n(-c2ccc(S(=O)(=O)NC3CCCCC3)cc2)n1C | inactive: -11.3% |
| Cc1cc(=O)oc2cc(OC(C)C(=O)Nc3ccc(N4CCCCC4)cc3)ccc12 (configuration not stated) | inactive: -28.5% |
| O=C1CC(CC(=O)N/N=C/c2ccccc2[N+](=O)[O-])=NN1 | inactive: 17.1% |
| COc1ccccc1C(NC(=O)C1CCN(CCOc2ccccc2)CC1)c1ccccn1 (configuration not stated) | inactive: 11.8% |
| COc1ccc(N/N=C(C)/C(=N/O)C(=O)Nc2ccccc2)cc1 | inactive: 25.5% |
| CCOc1cccc(/C=N/Nc2ccc(S(=O)(=O)N(CC)CC)cn2)c1O | inactive: 6.49% |
| COc1ccccc1C(=O)Nc1ccccc1C(=O)N1C(C)CCCC1C (configuration not stated) | inactive: 8.38% |
| Cc1cnccc1CNC(=O)CC1C(=O)NCCN1CC(C)(C)C (configuration not stated) | inactive: -5.23% |
| COCCCN(C(=S)Nc1c(C)cc(C)cc1C)C(C)c1ccncc1 (configuration not stated) | inactive: 21.1% |
| O=c1nc(Nc2ccccc2)sc2ccc([N+](=O)[O-])cc12 | inactive: -1.43% |
| CC(C)c1nnc(NC(=O)c2cc3cc(Br)ccc3oc2=O)s1 | inactive: 15.7% |
| CCOC(=O)c1cc2[nH]c3ccccc3c2[n+](-c2ccc([N+](=O)[O-])cc2)c1C | inactive: 4.13% |
| Cc1cc(C(F)(F)F)nc(CCNCc2c(C(=O)N3CCCC3)nc3ccccn23)n1 | inactive: -15.8% |
| CCCCCSc1nc2c(cnn2-c2ccc(F)cc2)c(=O)[nH]1 | inactive: -5.26% |
| C=CCNc1nc(Nc2ccc(OC)c(OC)c2)c2sc(-c3ccccc3)cc2n1 | inactive: 14.2% |

| Structure (SMILES) | growth rescue (activation) |
| --- | --- |
| CC(C)(C)Nc1nc(N2CCCC2)nc(N2CCCC2)n1 | inactive: 5.42% |
| CC1(C)Oc2ccc3ccc(=O)oc3c2/C(=C/Nc2cccc(O)c2)C1=O | inactive: 11.6% |
| CC(C)c1ccc(/C=C2\C(=O)N(CCN3CCOCC3)C(=S)N2C)cc1 | inactive: 14.4% |
| O=C1Nc2ccccc2/C1=N\N=C\c1ccc(O)c(O)c1 | inactive: -11% |
| CCC(C)NC(=O)Cn1c(COc2ccc(Cl)cc2Cl)nc2ccccc21 (configuration not stated) | inactive: 11.4% |
| O=C(CCCn1c(=O)c2sccc2n(CC(=O)NCC2CCCO2)c1=O)NCc1ccco1 (configuration not stated) | inactive: -8.18% |
| Cc1[nH]c2ccc(C(=O)N3CCC(C(N)=O)CC3)cc2c1C | inactive: 14.7% |
| Cc1cc(NC(=O)C(C)SCC(=O)N(C)Cc2c(F)cccc2Cl)no1 (configuration not stated) | inactive: 24.7% |
| COc1cccc(-c2ccc3c(c2)N(Cc2ccc(F)cc2)C(=O)C(C)S3)c1 (configuration not stated) | inactive: 5.17% |
| Cc1cc(C)nc(SCC(=O)Nc2ccc(S(=O)(=O)Nc3ncccn3)cc2)n1 | inactive: 1.26% |
| C=CCN1C(=O)C(CC(=O)Nc2ccccc2)S/C1=N/c1nccs1 (configuration not stated) | inactive: -13.5% |
| CCC(C)(C)NC(=O)CN(C(=O)C(=O)Nc1ccc2c(c1)OCCO2)N1CCOCC1 | inactive: -23.8% |
| N/C(=N\OC(=O)CCCOc1ccccc1)c1ccncc1 | inactive: 17.3% |
| Cc1cc(C)cc(C(=O)NCC(=O)OCC(=O)c2cc(C)n(CC(F)(F)F)c2C)c1 | inactive: -6.67% |
| Cc1cc(C)n(-c2nc3ccccc3nc2N2CCN(S(=O)(=O)c3cccc(C#N)c3)CC2)n1 | inactive: 9.88% |
| COc1ccc(C(=O)c2cccc(C(=O)c3ccc(OC)c(C)c3)c2)cc1C | inactive: -3.59% |
| Cc1cc(NC(=O)CSc2nnc(Nc3ccccc3F)s2)no1 | inactive: -17% |
| O=C(NCc1cccnc1)c1ccc2sc([C@H]3C[C@H](O)[C@@H](CO)O3)nc2c1 | inactive: 0.269% |
| COc1ccc(NC(=O)C2Cc3c(-c4ccc(NC(C)=O)cc4)ccnc3O2)cn1 (configuration not stated) | inactive: -1.93% |
| NS(=O)(=O)c1ccc(Sc2ccc3ccccc3c2)nc1 | inactive: 22.7% |
| O=C(COC(=O)COc1ccccc1)NC1CCS(=O)(=O)C1 (configuration not stated) | inactive: -14.9% |
| COc1ccccc1N1CCN(C(=O)CCCn2nc(C)c([N+](=O)[O-])c2C)CC1 | inactive: 4.93% |

| Structure (SMILES) | growth rescue (activation) |
| --- | --- |
| COc1ccc(C2CC(c3cccs3)=NN2S(C)(=O)=O)cc1 (configuration not stated) | inactive: 9.54% |
| Cc1ccc(C)c(OCCC(=O)OCC(=O)Nc2cc(S(=O)(=O)N3CCCCC3)ccc2C)c1 | inactive: -3.98% |
| COc1cccc(CN2CCNC(=O)C2CC(=O)NCCCn2ccnc2)c1 (configuration not stated) | inactive: 11.1% |
| COc1cccc(CNC(=O)N2CCN(c3ccccc3C)CC2)c1 | inactive: 28.5% |
| O=C(CCS(=O)(=O)c1ccc(Cl)cc1)Nc1ccccc1Br | inactive: 2.35% |
| CC(C)CNC(=S)N1CCN(Cc2ccc3c(c2)OCO3)CC1 | inactive: 5.55% |
| Cc1cccc(NC(=O)[C@H](Cc2ccccc2)NC(=O)OCc2ccccc2)c1 | inactive: 2.64% |
| COC(=O)/C(=C/c1cccc([N+](=O)[O-])c1)NC(=O)c1ccc(OC)cc1 | inactive: 16.7% |
| Cc1ccc(CNC(=O)CCNC(=O)c2ccc([N+](=O)[O-])cc2)cc1 | inactive: 27.4% |
| CN(CCC#N)C(=O)COC(=O)C1c2ccccc2Oc2ccccc21 | inactive: 4.83% |
| CCOc1ccc2[nH]c3c(=O)n(CCC4=CCCCC4)cnc3c2c1 | inactive: 17.4% |
| Fc1ccc(Oc2cnns2)cc1 | inactive: 2.07% |
| CC(C)NC(=O)C1(C)CCN1C(=O)c1ccc(F)c(Cl)c1 (configuration not stated) | inactive: 5.78% |
| O=C(Nn1c(-c2ccncc2)nc2ccccc2c1=O)c1ccccc1Br | inactive: -0.755% |
| COc1cc2cc(CN(Cc3cccs3)C(=S)Nc3ccccc3)c(=O)[nH]c2cc1OC | inactive: 23.2% |
| CCNC(=S)N/N=C(\C)c1ccc(N2CCOCC2)cc1 | inactive: 6.75% |
| CSCCC(NC(=O)c1cccc(C)c1)C(=O)O (configuration not stated) | inactive: 6.93% |
| O=c1nccc(N/N=C/c2cccc(O)c2)[nH]1 | inactive: 18.5% |
| Cc1nn(CCO)c(N)c1C1(O)C(=O)Nc2c(Cl)cc(Cl)cc21 (configuration not stated) | inactive: 10.5% |
| Cc1nn(-c2ccccc2)c(C)c1C=O | inactive: 0.35% |
| COc1ccc(OC)c(C(=O)Cn2cnc3ccccc3c2=O)c1 | inactive: 20.1% |
| OC(COCc1ccccc1)CN1CCc2ccccc2C1 (configuration not stated) | inactive: -5.68% |

| Structure (SMILES) | growth rescue (activation) |
| --- | --- |
| Cc1ccc2occ(C3NC(C(=O)O)CS3)c(=O)c2c1 (configuration not stated) | inactive: 13.9% |
| O=C(COC(=O)COc1ccccc1)Nc1ccc(S(=O)(=O)N2CCOCC2)cc1 | inactive: -3.03% |
| Cn1ncc2c(NNC(=O)Cc3ccccc3)ncnc21 | inactive: -2.21% |
| CC(=O)Nc1cccc(-c2ccnc3c2CC(C(=O)NCc2cccs2)O3)c1 (configuration not stated) | inactive: 0.856% |
| Cc1ccc(NC(=O)CCn2c(=S)oc3ccccc32)cc1F | inactive: 8.06% |
| Cc1nn(-c2ccccc2)c(C)c1/C=N/NC(=O)CSc1nnc(SCc2cccc3ccccc23)s1 | inactive: 8.22% |
| COCCn1nnnc1CN1CCN(C(=O)c2ccco2)CC1 | inactive: 7.66% |
| O=C1CN(S(=O)(=O)c2ccc(Cl)cc2)c2ccccc2N1 | inactive: -1.09% |
| CCc1nc2ccc(C(=O)N3CCN(C(C)=O)CC3)cn2c1N(CC)C(C)=O | inactive: 8.14% |
| CCc1nc2ccc(C(=O)Nc3ccc(NC(C)=O)cc3)cn2c1N(C)C(=O)Cc1ccccc1 | inactive: -10.5% |
| N#CC1=C(S)N(c2ccc(F)cc2)C2(CCCCC2)NC1=O | inactive: -1.21% |
| NC1=NS(=O)(=O)NC1c1ccc(F)cc1 (configuration not stated) | inactive: -12% |
| CCOc1ccc(CNC(=O)c2ccc3c(c2)N(Cc2ccccc2)CCS3)cc1 | inactive: -8.99% |
| COc1ccc(S(=O)(=O)Nc2ccccc2C(=O)NC(C)C)cc1OC | inactive: 6.69% |
| Cc1nc(CCNC(=O)CC2C(=O)NCCN2Cc2ccccc2F)sc1C (configuration not stated) | inactive: 32.4% |
| NS(=O)(=O)c1ccc(NC(=O)CSc2n[nH]c(=O)n2Cc2ccccc2)cc1 | inactive: 2.1% |
| COc1ccc(S(=O)(=O)NCc2ccc(F)cc2)cc1OC | inactive: 7.68% |
| O=S(=O)(Nc1ccc(-n2cnnn2)cc1)c1ccc(Cl)s1 | inactive: 19.1% |
| CCOC(=O)c1cnc(SCC(=O)NNC(=O)c2ccco2)nc1N | inactive: 21.3% |
| O=C(Cn1ncc2c(Cl)cccc21)NCc1cccc(F)c1 | inactive: 4.64% |
| O=C(COC(=O)c1ccc2ccccc2n1)Nc1ccccc1Br | inactive: 3.77% |
| CC1(C(=O)NS(=O)(=O)C2CC2)CCCN(C(=O)c2cc3ccccc3s2)C1 (configuration not stated) | inactive: -1.58% |

| Structure (SMILES) | growth rescue (activation) |
| --- | --- |
| COc1ccc(N(CC(=O)NCCc2ccc(Cl)cc2)S(=O)(=O)c2c(C)[nH]c(=O)[nH]c2=O)cc1 | inactive: 8.06% |
| CC1(C(=O)NS(=O)(=O)C2CC2)CCN(C(=O)COCc2ccccc2)C1 (configuration not stated) | inactive: 6.06% |
| O=C(CSc1cn[nH]n1)Nc1cccc(C(F)(F)F)c1 | inactive: -6.29% |
| Cc1cccc(C)c1NC(=O)C1(N2C(=O)CC2c2ccccc2)CCCCC1 (configuration not stated) | inactive: -8.89% |
| Cc1cccn2cc(-c3ccc4c(c3)NC(=O)CO4)nc12 | inactive: -17.4% |
| CC1CC(C)CN(C(=O)COC(=O)CN2C(=O)c3ccccc3C2=O)C1 (configuration not stated) | inactive: 1.67% |
| COCCN(C(=O)CNC(=O)c1ccco1)C(C(=O)NC1CCCC1)c1cccc(OC)c1 (configuration not stated) | inactive: 11.9% |
| COC(=O)c1ccc(Nc2nc3ccc(C)cc3n3cnnc23)cc1 | inactive: 3.17% |
| CC1CCCC(C)N1NC(=O)c1cccc(S(=O)(=O)N2CCc3ccccc32)c1 (configuration not stated) | inactive: 6.64% |
| O=C(N/N=C/c1ccc(F)cc1)c1cc[n+]([O-])cc1 | inactive: -4.02% |
| O=C(CSc1nnc(-c2ccco2)c(-c2ccco2)n1)c1ccccc1 | inactive: -2.09% |
| CCOc1ccccc1N(C)C(=O)c1nn(-c2ccc(OC)cc2OC)c(=O)c2ccccc12 | inactive: -3.43% |
| O=C(CSc1nc2nc(-c3cccs3)cc(C(F)(F)F)c2c(=O)[nH]1)Nc1c(F)c(F)c(F)c(F)c1F | inactive: 5.26% |
| O=C(COC(=O)CC1CC2CCC1C2)NCc1ccc(F)cc1 (configuration not stated) | inactive: 6.92% |
| CC1Cc2ccccc2N1S(=O)(=O)c1cccc(C(=O)NC2CC2)c1 (configuration not stated) | inactive: -9.45% |
| CNCCCOc1cc(C)cc(C)c1C | inactive: -2.45% |
| COc1cc(C)ccc1S(=O)(=O)NC(=O)C1(C)CCN1C(=O)c1ccc(C(F)(F)F)nc1C (configuration not stated) | inactive: 7.52% |
| CCOC(=O)c1c(NC(C)=O)c2c3c(sc2n1Cc1cc(C)ccc1C)CCCC3 | inactive: 4% |
| COc1ccc(N=C2NC(=O)C(CC(=O)NCCc3ccc(OC)c(OC)c3)S2)cc1 (configuration not stated) | inactive: 12.5% |
